# PMC4242493
# The list shows a part of the results. The list includes weakly bound sequences.
# Target: MaxL homodimer (UniProt P61244)
# Assay: universal protein-binding microarray (PBM)
# Settings: PBS-based mixture, 10 nM His-tagged protein dimer, 2% milk, 200 ng/uL BSA, 50 ng/uL salmon testes DNA, 0.02% TX-100; detection with Alexa 488 anti-His …; high values mean tight binding; most listed sequences are background and not binding sites; double strand, one strand shown
# UniProt P61244, sequence (P61244 whole entry): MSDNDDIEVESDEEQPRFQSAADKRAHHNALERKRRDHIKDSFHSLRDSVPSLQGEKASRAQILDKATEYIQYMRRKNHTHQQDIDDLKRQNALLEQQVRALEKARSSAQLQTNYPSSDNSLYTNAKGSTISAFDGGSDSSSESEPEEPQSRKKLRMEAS
row,Sequence,binding signal (normalized occupancy)
1,CCGGGCGC,0.0655
2,TGTAAGAA,0.0734
3,CAGCTACA,0.0736
4,TAATCCGA,0.0761
5,AGACATAT,0.0822
6,TCGTGTAA,0.0836
7,CAAATGAA,0.0748
8,AATCTAAG,0.0751
9,AACTCAGT,0.0711
10,ACCTCTCG,0.0709
11,GTTGAAGA,0.082
12,CGACGTTC,0.0713
13,AGACGTCC,0.0732
14,GCCTTCAC,0.0755
15,AGATATGG,0.0794
16,GTCTGATA,0.0826
17,CATTGGGA,0.0767
18,ATTCAGGC,0.0733
19,AAATTCCC,0.075
20,GCTGAAGA,0.0745
21,CCGGCTCA,0.0708
22,CATCTTTC,0.078
23,CGTTCATA,0.0823
24,ACTAATAA,0.0806
25,ACGCACCA,0.0832

row,Sequence,binding signal (normalized occupancy)
1,ATGGAACA,0.0787
2,ACGCTATG,0.0818
3,ACGATAGG,0.085
4,ATTCATTA,0.0772
5,GTACATTA,0.0774
6,TCTCATCA,0.0771
7,CAACATGC,0.094
8,CGAGTGCA,0.0777
9,AAAAGACC,0.071
10,AAGATGCC,0.0737
11,ACACCGGA,0.0723
12,ACAAAGGG,0.0742
13,AGCGCGAT,0.0758
14,AGGTGATC,0.0832
15,ACCGACCT,0.0719
16,TACTTGGA,0.0749
17,GACCAGGA,0.0732
18,ACACTATA,0.0859
19,TAGGCCTA,0.0738
20,CTTTTATA,0.0741
21,ATCAGGTG,0.0937
22,AGACTAGG,0.0738
23,CCGTTATA,0.0796
24,AGCCTCCT,0.0717
25,ACAGAACG,0.0749

row,Sequence,binding signal (normalized occupancy)
1,ACACAGCG,0.075
2,ACCCGAGC,0.0647
3,ACTCTGCG,0.0691
4,CACCAATG,0.0783
5,AGAGTGAC,0.0747
6,ATAGTTCC,0.0748
7,GCTGTCGA,0.0755
8,AAAATGAC,0.0766
9,CTGGACCA,0.0745
10,ATGCAGTG,0.0819
11,CACCCAGG,0.0759
12,CACCGCGG,0.0707
13,CGCGATTC,0.081
14,GAGGATAA,0.0756
15,AAAAGCTC,0.0684
16,GTTGGTTA,0.0809
17,AAGGGGAC,0.0746
18,CGCGCCAG,0.069
19,CATCCGCC,0.0779
20,ACAGCAAG,0.0787
21,ATCTCTTA,0.08
22,AAAGTTGT,0.0691
23,AAGTCCTA,0.0712
24,CGCCGCCA,0.0713
25,CCGGAGTA,0.0702

row,Sequence,binding signal (normalized occupancy)
1,GGAGAGCC,0.0707
2,CGCGGACA,0.0752
3,CTAAGGAG,0.0656
4,CCGTGCAC,0.0816
5,CAAAGCAA,0.0688
6,TTCCCCAA,0.0732
7,CATGGGAG,0.0855
8,CGAATCGA,0.0744
9,ACGGTGTG,0.0815
10,CCGGATGA,0.0724
11,AATAGGCT,0.0725
12,CCTTTCGC,0.0714
13,GAAGCGTC,0.0721
14,ACGATTTG,0.0757
15,AAGTACTC,0.0685
16,ATAATTTC,0.0762
17,GTATAATA,0.082
18,ATGCGAAT,0.0776
19,CAATGAGC,0.074
20,ACATAGAG,0.0791
21,CTTCATGC,0.0794
22,AACTGGGA,0.0697
23,AGGCCCAA,0.0701
24,GAGGACTC,0.0713
25,GCGGTTTA,0.0776

row,Sequence,binding signal (normalized occupancy)
1,CAACGGTA,0.0712
2,CTAAAGGA,0.0683
3,ACTTAATA,0.0776
4,CATAGGTC,0.0768
5,ATCACGTA,0.0829
6,CTGTATGA,0.077
7,CTCCCTTC,0.0744
8,CAAGTCAG,0.0704
9,ATATCGCC,0.0753
10,GACATTCA,0.0822
11,GTCGTAAC,0.0754
12,GCGCTGGA,0.07
13,AGTCGGGA,0.0715
14,ACGGTCAA,0.0749
15,CTGCGATC,0.0754
16,AGGTTGTC,0.0771
17,GCTACCTA,0.0727
18,AAATTCTG,0.0729
19,GGCGGGAA,0.0771
20,GTTACGAA,0.0722
21,CGTCATTC,0.0738
22,CAATTGAG,0.0714
23,ACTCCCTA,0.0788
24,TAGAATGA,0.0808
25,TAGTGTGA,0.0842

row,Sequence,binding signal (normalized occupancy)
1,CGCCACAG,0.0708
2,AAAGTCAA,0.0707
3,ACCAATAC,0.0797
4,AACACATG,0.138
5,CAGAAAGA,0.0707
6,AGCCTAAA,0.07
7,CCCTACTC,0.0779
8,CCAGACGG,0.0665
9,GAGATTCA,0.0714
10,ATGGACTC,0.0812
11,CGACCCAG,0.0675
12,CGTGAGAA,0.0788
13,AAGGCATC,0.0702
14,ACGGGACG,0.0756
15,CGGGTATA,0.0748
16,TAAGGACA,0.075
17,TAATGGCA,0.0779
18,CATGTATA,0.089
19,GTCGAACA,0.0741
20,AAATAAAA,0.079
21,CATGGCTC,0.09
22,CCACAGAC,0.0741
23,CACCCATC,0.0827
24,AATGCCGC,0.0765
25,CCCTAACA,0.0728

row,Sequence,binding signal (normalized occupancy)
1,AATAAGAG,0.0738
2,GGCAACAA,0.0717
3,AGTGTCCC,0.0718
4,ATTCCACG,0.0964
5,GATTCTGC,0.0697
6,CAAATAGG,0.0768
7,TTCCCGAA,0.0701
8,AATCGAAA,0.0785
9,CCGGGCGA,0.0712
10,CGGATACG,0.0726
11,CGCACAGC,0.0728
12,CTTACTCA,0.0702
13,CATGAGCG,0.0868
14,GGCTCACC,0.0732
15,GTATGTTA,0.0849
16,GGAAGGGA,0.0683
17,AAAGCCCT,0.0675
18,CCCAAGGA,0.0711
19,CCAGGGTC,0.0678
20,GTGAAAGA,0.0834
21,TCGAAACA,0.0722
22,GGACCCTA,0.0749
23,ACCGTCTG,0.0693
24,AGGAGGGA,0.0746
25,TCCGATAA,0.076

row,Sequence,binding signal (normalized occupancy)
1,ATCTCATA,0.076
2,GAATCAGC,0.0733
3,ATGAAGAA,0.0767
4,GGTGTCGA,0.0764
5,AAGTTCTA,0.0746
6,CGGCCCCA,0.0745
7,AAACGCAA,0.0718
8,GTTTGGTA,0.0755
9,ACTCGTAG,0.0707
10,GCGGATTA,0.0783
11,ACGGCACT,0.0734
12,CTATAAGC,0.0801
13,TAAAAGGA,0.0684
14,GCATTGAC,0.0831
15,GGCCCAGA,0.0698
16,TAGATAAA,0.0755
17,AAAGTAGT,0.073
18,CATGGTGG,0.0938
19,GTACTAAC,0.0746
20,CCGGCGCC,0.0683
21,ATCCGTAG,0.0735
22,AAGGCGTC,0.0778
23,ACTCGTCA,0.0793
24,AGTAGGTA,0.0741
25,ATGTTGTG,0.0817

row,Sequence,binding signal (normalized occupancy)
1,AGTCAAGC,0.0708
2,CAGACGAC,0.0794
3,AAGCTGCG,0.0657
4,GCTAGCCC,0.0715
5,CCATGTGA,0.154
6,ACACCACG,0.0983
7,CGCCCGAG,0.0641
8,GAATAAAA,0.0745
9,GAGGGTCC,0.0747
10,AAACTAAC,0.0741
11,ATGACAGG,0.076
12,CGACCGGA,0.07
13,CCGATGTA,0.0736
14,CGTTCATC,0.0768
15,GAACGTGC,0.0931
16,CCATGGGA,0.0939
17,CTGCTCTA,0.0709
18,CATTATGA,0.0869
19,GAACTTGC,0.0753
20,CAGCCCTG,0.0675
21,AACATAGC,0.0753
22,ATTGAGTC,0.0771
23,AGCGTAGG,0.0668
24,GAAAGTAA,0.0685
25,GCTTAATA,0.0802

row,Sequence,binding signal (normalized occupancy)
1,CGACACGA,0.0818
2,CGGACGTA,0.0687
3,ACGCCGAG,0.0736
4,AATCCGTC,0.0705
5,CTCACCGC,0.0702
6,ACAAAACT,0.0722
7,GAAAACGA,0.0726
8,AGTGCCAT,0.0795
9,AGACGTCA,0.0744
10,AAGCCAAT,0.075
11,GACGAGCC,0.0666
12,CCTTGATA,0.0778
13,AACAGGGT,0.0754
14,GCTTCAAC,0.0725
15,TTGGCCAA,0.0667
16,AGCCTGGG,0.0676
17,CGCTGTGC,0.0667
18,CCGATCAG,0.0753
19,GTCATAAC,0.0769
20,GTTGTCGA,0.0773
21,CTGGTTTC,0.0722
22,GGTACTGA,0.0736
23,TAGCACAA,0.0756
24,AAGGTCCC,0.0716
25,CCATTCAG,0.0765

row,Sequence,binding signal (normalized occupancy)
1,TCCGCAAA,0.0731
2,GCCCACAC,0.0865
3,CTGATTTA,0.0747
4,AAAGTCAG,0.072
5,CGGTTTAA,0.0746
6,GCCAGTAC,0.0725
7,AGAGATCC,0.0829
8,CTCCCACC,0.0797
9,AGCTGCCA,0.0736
10,AACTCCTG,0.073
11,ACAAGCAG,0.0746
12,AGTACCCG,0.0738
13,CTAGCAAC,0.0846
14,CAAACTAC,0.075
15,CGAGAGCC,0.0663
16,CGGAAACG,0.0704
17,GGCAGTAC,0.0749
18,GAGCCATA,0.078
19,GGACCGGA,0.0692
20,AATTTGCC,0.0682
21,GGAAGCGA,0.0757
22,ACTCAACT,0.0702
23,AGATGAGG,0.0788
24,AATCCAGC,0.0674
25,TCGGGGAA,0.0737

row,Sequence,binding signal (normalized occupancy)
1,AACACACG,0.0945
2,ACGCCTGG,0.0735
3,AACGAAGG,0.071
4,CGCTCACG,0.0789
5,GGTGCTAA,0.0771
6,ACCACAGT,0.0708
7,TTACGCAA,0.0727
8,ACTGTTAA,0.0758
9,ATGATCAG,0.0773
10,AAGTCGAG,0.068
11,ACGATAAG,0.0793
12,TACCCGTA,0.0757
13,TTCCGGAA,0.0665
14,CATACTGG,0.0812
15,CCTAGCAA,0.0774
16,ACAGGAAA,0.0719
17,CAAGAAGG,0.0798
18,AATTGCGG,0.069
19,ACCGTATG,0.082
20,ACGGCGCT,0.0669
21,CAGGAAGC,0.0716
22,CGATCAAC,0.0753
23,AAATCAGA,0.0744
24,CCGCGGAG,0.0679
25,CGAAGAAG,0.0706

row,Sequence,binding signal (normalized occupancy)
1,ACCGTTCA,0.0774
2,ACCGAATC,0.0769
3,ATTCTAGC,0.0768
4,CACCCTAC,0.0851
5,AAAAAAGC,0.0702
6,CTAATACC,0.076
7,CCTCGCAC,0.0828
8,ATTGCACG,0.0822
9,CGCTTGGC,0.0679
10,ATGGGTGG,0.0852
11,TACTAACA,0.0798
12,AGCATCCG,0.0757
13,TCACACGA,0.0859
14,GTGCGGAA,0.0783
15,ACAGTTTA,0.0711
16,GACTCGTA,0.0733
17,ATGGCAAG,0.0757
18,AAATAGGA,0.0746
19,GGGAATTA,0.0803
20,GCTAACGA,0.0715
21,ACGCTAAT,0.0757
22,CCTCCATC,0.0784
23,ATGCCCTG,0.0757
24,CCGGGGTC,0.0728
25,GATTAGGA,0.077

row,Sequence,binding signal (normalized occupancy)
1,ACCCTTGA,0.0737
2,CGGCCGGC,0.0636
3,AAGGTGCG,0.077
4,ACCCGTAC,0.0817
5,ACCACATG,0.192
6,ATTAGATG,0.0818
7,ACGACAGC,0.0773
8,ACATCACC,0.0798
9,CGAGAGAG,0.0753
10,AATCCGAG,0.0705
11,ACCGCACC,0.0777
12,CTGCAGGA,0.074
13,CGCGCAAC,0.0771
14,CACTGAAA,0.0741
15,GTGTGTTA,0.0835
16,GCAAGTCC,0.0669
17,CGATTAAC,0.0792
18,CCGCGTAC,0.0726
19,GACTCCCC,0.0728
